# According to PubChem BioAssay AID624296 (National Center for Advancing Translational Sciences (NCATS), 2012):
# Hit rate of the full screen: of about 350,000 compounds, about 9,900 (2.8%) were called active. Inconclusive results, whose numbers are uncertain, are shown with a selection of clear calls. Calls come from the whole dose curve; as a rule, active = well fitted activation curve with a large enough effect; inconclusive = small, poorly fitted or top-dose-only effect; inactive = no such curve, though single readings can be large or run the other way. No potency is given beside an inconclusive call; the fits are too rough.
# Experiment: A quantitative high throughput screen for small molecules that induce DNA re-replication in MCF 10a normal breast cells. Note: nearly all actives have a fitted effect of over 50% in size.
# Details: MCF 10A DNA re-replication, Hoechst nuclear intensity, 48 h; series mostly up to 46.1 µM
# Potency is the fitted concentration of half-maximal effect; tags give direction and shape of the fitted curve.
row,Structure (SMILES),Potency
1,O=C(C1=C(O)C(=O)N(c2nccs2)C1c1ccccc1)c1cc2ccccc2o1 (stereo not drawn),"inconclusive [activator, single point]"
2,Cc1ccccc1-n1c(SCC(=O)N/N=C/C=C/c2ccccc2[N+](=O)[O-])nc2ccccc2c1=O,"inconclusive [activator, partial curve, poor fit]"
3,Cc1nc2ccc(-c3nc4ccccc4o3)cc2[nH]1,inactive
4,CN(C(=O)c1cccc(NC(=O)Cc2ccc(NC(=O)C3CCN(C(=O)C4CCCCC4)CC3)cc2)c1)C1CC1,"inconclusive [activator, full curve, poor fit]"
5,COc1ccccc1C(=O)NCCc1c(C)[nH]c2c(C)ccc(F)c12,"inconclusive [activator, partial curve, poor fit]"
6,CSc1ccc(CCNC(=O)CCc2nnc3ccc(NCCCN4CCCC4=O)nn23)cc1,"inconclusive [activator, partial curve, poor fit]"
7,CC1=C(C(=O)OCC(C)C)C(c2ccc(F)cc2)NC(=O)N1 (stereo not drawn),"inconclusive [activator, single point]"
8,O=c1c2ccccc2n(CC(O)CN2CCCCC2)c2ccccc12 (stereo not drawn),active: 20.6 µM
9,O=C1CC[C@@H]2CC3(C[C@@H]4CCN1[C@H]24)Nc1cc(Cl)ccc1NC3=NC1CCCCC1 (stereo partly drawn),"inconclusive [activator, single point]"
10,CC(C)(C)C(=O)NC(=S)NCCc1ccccc1,inactive
11,O=c1[nH]c2ccccc2cc1-c1nnn(-c2ccccc2)n1,"inconclusive [activator, partial curve, poor fit]"
12,O=C(Nc1nnc(COc2ccc(Br)cc2)s1)c1ccco1,"inconclusive [activator, full curve, poor fit]"
13,CCN1CCN(S(=O)(=O)c2cc(OCC(=O)NC3CCCCC3)c(C)cc2Cl)CC1,"inconclusive [activator, full curve, poor fit]"
14,Cc1ccc2c(c1C)C(=O)C(=O)N2,inactive
15,O=C(CN1CCN(c2nc(-c3ccc(F)cc3)cs2)CC1)Nc1ccc2c(c1)OCO2,"inconclusive [activator, partial curve, poor fit]"
16,Cc1ccc(N(CC(=O)N2CCCCCC2)S(=O)(=O)c2ccccc2)cc1,inactive
17,CCc1nc2ccccc2c(C(=O)OCC(=O)N(CC(C)C)c2c(N)n(Cc3ccccc3)c(=O)[nH]c2=O)c1C,"inconclusive [activator, partial curve, poor fit]"
18,O=C(N[C@@H](Cc1ccc(O)cc1)C(=O)O)c1ccncc1,inactive
19,O=C(NCc1ccccc1)c1ccc(-c2ccccc2C(F)(F)F)o1,"inconclusive [activator, single point]"
20,CC(=O)Cc1nsc(NC(=O)c2ccc(-c3cccc(Cl)c3)o2)n1,active: 10.3 µM
21,Cc1nc(NC(=O)COc2ccc(Cl)cc2)sc1C(=O)N(C)C,"inconclusive [activator, single point]"
22,COc1cc(C(C(=O)NC2CCCC2)N(C(=O)c2ccco2)c2ccccc2C(C)=O)cc(OC)c1OC (stereo not drawn),"inconclusive [activator, partial curve]"

row,Structure (SMILES),Potency
1,Cc1ccc(C(=O)NCC(=O)OCC(=O)c2ccc(Br)s2)cc1,inactive
2,O=C(Nc1cccc(C(F)(F)F)c1)c1ccc2nc(N3C(=O)CCC3=O)sc2c1,"inconclusive [activator, partial curve, poor fit]"
3,CCOc1ncccc1C(=O)NNC(=O)c1cccc(S(=O)(=O)Nc2ccc(OC)cc2)c1,inactive
4,O=C(NCc1cccs1)c1cc(-c2ccccc2)nn1CC1CC(c2cccnc2)=NO1 (stereo not drawn),"inconclusive [activator, full curve, poor fit]"
5,O=C(CCCn1c(SCc2cc(=O)n3cc(Cl)ccc3n2)nc2ccccc2c1=O)NCC1CCCO1 (stereo not drawn),inactive
6,CCCCn1c(CNC(=O)C(C)(C)C)nc2ccccc21,inactive
7,COc1ccnc(N2CCN(c3ccc(Cl)cc3)CC2)c1C#N,inactive
8,CC(C(Sc1ccccc1N)c1ccccc1)[N+](=O)[O-] (stereo not drawn),"inconclusive [activator, single point]"
9,COc1ccc(CN(C(=O)c2oc3ccccc3c2C)C2CCS(=O)(=O)C2)cc1OC (stereo not drawn),inactive
10,CCOC(=O)c1c(C)n(C)c2ccc(OCC(O)Cn3c(C)nc4ccccc43)cc12 (stereo not drawn),"inconclusive [activator, single point]"
11,CN(CCCC1CCCC1)C(=O)c1cc(COc2c(F)cccc2F)on1,"inconclusive [activator, single point]"
12,CCOc1ccc(C(=O)O/N=C(\N)c2ccccn2)cc1,inactive
13,CCC(=O)NC(=S)Nc1ccc(-c2nc3ccccc3s2)cc1,inactive
14,COc1cc(OC)cc(C(=O)NCCOC23CC4CC(CC(C4)C2)C3)c1,"inconclusive [activator, partial curve, poor fit]"
15,COc1ccc(/C(N)=N/OC(=O)c2c(-c3ccccc3Cl)noc2C)cc1OC,"inconclusive [activator, single point]"
16,CCOC(=O)c1ccc(N2C(=O)C3C(C2=O)C(C(=O)c2ccc(Cl)cc2)N2CCCC32)cc1 (stereo not drawn),"inconclusive [activator, single point]"
17,CSc1ccc(CN2CCC(Cc3ccccc3)CC2)cc1,inactive
18,C=CCN1C(=O)C2C(C(=O)NC3CCCC3)C3C=CC2(O3)C1C(=O)NC1CCCC1 (stereo not drawn),inactive
19,Cc1cc(OC(=O)c2cccc([N+](=O)[O-])c2)c(C)cc1CN1CCOCC1,"inconclusive [activator, single point]"
20,CCCn1c(SCC(N)=O)nc2c(c1=O)C1(CCCC1)Cc1ccccc1-2,"inconclusive [activator, single point]"
21,N#CC(c1nc2ccccc2nc1N1CCOCC1)S(=O)(=O)c1ccccc1 (stereo not drawn),"inconclusive [activator, single point]"
